# Data reported in PubChem BioAssay AID445 (National Center for Advancing Translational Sciences (NCATS), 2006).
# The whole screen tested about 110,000 compounds, of which about 40 (0.04%) were called active. Inconclusive results, whose numbers are uncertain, are shown with a selection of clear calls. Calls come from the whole dose curve; as a rule, active = well fitted curve in the direction sought with a large enough effect in the signal ratio (not every such curve was filed as active); inconclusive = small, poorly fitted or top-dose-only effect, or a change in a side signal; inactive = flat fitted curve, though single readings scatter; the % refers to the signal ratio. Where the call is inconclusive, the potency comes from a doubtful curve fit.
# Test: IkB Signaling;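 for IkBa stabilization activation: 0% = basal untreated cells and 100% = reference inhibitor full response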
# Conditions: ABC-DLBCL IkBa-CBG/CBR dual luciferase ratio (green luciferase fused to IkBa over red control in OCI-Ly3 lymphoma cells), 4 h, scaled: untreated 0%
# In short: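 Curves were fitted separately to fusion (green), unfused (red) and ratio luminescence, then classed by r2, magnitude and activity. Cells: OCI-Ly3, 4 h compound plus doxycycline at 37C; 10 uM MG-132 defined full response.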
# [1] = IkBa stabilization activation: at 57.1 µM (top of the series), proteasome inhibitor 100% unless noted
# Potency is the fitted concentration of half-maximal effect.
compound,measurement,setting,value
Cc1ccc(C(=O)Nc2nccs2)cc1S(=O)(=O)N1CCCCC1,IkBa stabilization activation,[1],inconclusive: 3.54% [signal inhibitor]
COC(=O)c1ccc(OC)c(CSc2nnc(COc3ccc(OC)cc3)o2)c1,IkBa stabilization activation,[1],inconclusive: 8.98% [signal inhibitor]
CCOc1ccc(C2c3c(oc4ccccc4c3=O)C(=O)N2Cc2ccc3c(c2)OCO3)cc1 (centres undefined),IkBa stabilization activation,[1],inactive
CC(=O)c1ccc(NC(=O)/C=C/c2ccc(C)o2)cc1,IkBa stabilization activation,[1],inconclusive: 4.53% [signal inhibitor]
CCOC(=O)c1cccc(NC(=O)C2(S(=O)(=O)c3ccc(C)cc3)CC2)c1,IkBa stabilization activation,[1],inconclusive: -2.04% [signal inhibitor]
CCCNC(=O)C1CCC(Cn2c(=O)c3sccc3n(CC(=O)N3CCCC(C)C3)c2=O)CC1 (centres undefined),IkBa stabilization activation,[1],inactive
CC(=O)C1=C(c2ccc(C)cc2)N(C(C)=O)n2c(nnc2-c2ccccc2)S1,IkBa stabilization activation,[1],inconclusive: 3.05% [signal inhibitor]
O=C(c1ccco1)N1CCN(Cc2ccccc2C(F)(F)F)CC1,IkBa stabilization activation,[1],inactive
O=C(Nc1ccc(C(F)(F)F)cc1)C1CCN(c2cnccn2)CC1,IkBa stabilization activation,[1],inconclusive: -0.694% [signal inhibitor]
O=C(CSc1nc2cccnc2n1Cc1ccccc1)NCc1ccco1,IkBa stabilization activation,[1],inactive
COc1cccc(Cn2c(SCC(=O)N(C)c3ccccc3)nc3ccccc32)c1,IkBa stabilization activation,[1],inconclusive: 2.68% [signal inhibitor]
O=C(CN1CCC(C(=O)c2ccc(F)cc2)CC1)Nc1ccccc1,IkBa stabilization activation,[1],inconclusive: 4.91% [signal inhibitor]
CCc1c(C)c2ccc(O)c(CN3CCN(c4ccc(OC)cc4)CC3)c2oc1=O,IkBa stabilization activation,[1],inactive
CCc1ccc(-n2c(SCc3ccccc3C)nc3[nH]ncc3c2=O)cc1,IkBa stabilization activation,[1],inconclusive: 7.85% [signal inhibitor]
COC(=O)c1ccc(Cn2c(SCc3ccccc3)nc3ccncc32)cc1,IkBa stabilization activation,[1],inconclusive: 0.513% [signal inhibitor]
Cc1ccc(-c2nc(CS(=O)(=O)CC(=O)NCc3ccc(Cl)cc3)c(C)o2)cc1,IkBa stabilization activation,[1],inconclusive: 0.115% [signal inhibitor]
CCc1ccc(-n2nc(C)c3c(C(=O)Nc4cc(C)c(Cl)cc4OC)cc(C)nc32)cc1,IkBa stabilization activation,[1],inconclusive: -2.27% [signal inhibitor]
CCCN(C(=O)COc1cc(=O)n(CC)c2ccccc12)c1ccc(C(C)C)cc1,IkBa stabilization activation,[1],inconclusive: -1.54% [signal inhibitor]
Cc1ccc(-n2c(C)c3c(C)nnc(C)c3c2C)cc1,IkBa stabilization activation,[1],inactive
O=C(Cn1c(=O)n(Cc2ccco2)c(=O)c2ccccc21)Nc1cccc(Cl)c1,IkBa stabilization activation,[1],inconclusive: 10.9% [signal inhibitor]
CCCNC(=O)c1cnc2sc(N3CCCCCC3)nn2c1=O,IkBa stabilization activation,[1],inactive
Cc1cc(C(=O)Nc2cccc(F)c2)c2c(C)nn(-c3cccc(Cl)c3C)c2n1,IkBa stabilization activation,[1],inconclusive: -2.62% [signal inhibitor]
Cc1cc2cc(CCNC(=O)c3ccc(S(=O)(=O)N4CCOCC4)cc3)c(=O)[nH]c2cc1C,IkBa stabilization activation,[1],inconclusive: 3.88% [signal inhibitor]
COc1ccc(CCNC(=O)c2nc(SCc3ccc(C)cc3)ncc2Cl)cc1OC,Potency,[1],"inconclusive: 1000 nM [signal inhibitor, full curve]"
CCOC(=O)N1CCC(=C2c3ccc(Cl)cc3CCc3cccnc32)CC1,IkBa stabilization activation,[1],inconclusive: -0.832% [signal inhibitor]
same,IkBa stabilization activation,"at 57.1 µM (top of the series), proteasome inhibitor 100%",inactive: -3.52%
CN(C)c1ccc(C(=O)Nc2cccc(-c3nc4cccnc4s3)c2)cc1,IkBa stabilization activation,[1],inconclusive: -1.06% [signal inhibitor]
Cc1cc(O)c(-c2cc(C(=O)Nc3ccc(S(=O)(=O)N4CCOCC4)cc3)[nH]n2)cc1C,IkBa stabilization activation,[1],inconclusive: -5.58% [signal inhibitor]
CCc1c(C)sc2c1CCN(C(=O)Nc1cc(Cl)c(OC)cc1OC)C2c1ccccc1 (centres undefined),IkBa stabilization activation,[1],inconclusive: -1.36% [signal inhibitor]
CCC(=O)N1CCc2cc(CNS(=O)(=O)c3ccc(NC(=O)CC(C)C)cc3)ccc21,IkBa stabilization activation,[1],inconclusive: 1.57% [signal inhibitor]
COc1ccc2c(c1)CC(C(=O)NCCCN1CCN(c3ccccc3F)CC1)CO2 (centres undefined),IkBa stabilization activation,[1],inconclusive: 12.2% [signal inhibitor]
CCn1c(C)c(C)c2cc(C(=O)NCc3ccc(OC)cc3OC)ccc21,IkBa stabilization activation,[1],inconclusive: -0.183% [signal inhibitor]
Cc1ccc(-c2nnc(Nc3ccc(OCC(N)=O)cc3)c3ccccc23)cc1S(=O)(=O)N(C)C,IkBa stabilization activation,[1],inconclusive: 11.1% [signal inhibitor]
CC(C)(C)c1ccc(C2=NC(C)(C)N(CC(=O)Nc3ccc(F)c(F)c3)C2=O)cc1,IkBa stabilization activation,[1],inconclusive: 4.07% [signal inhibitor]
COc1ccc(-c2nc3cnc(N4CCN(C)CC4)nc3n(C3CC3)c2=O)cc1,IkBa stabilization activation,[1],"inactive: 2.8% [at 11.4 µM, scaled: untreated 0%, proteasome inhibitor 100%]"
COc1ccccc1NC(=O)CSc1nnc(Cc2cccn2C)n1CCc1ccccc1,IkBa stabilization activation,[1],inactive
Cc1cc(C)cc(NC(=O)Nc2ccccc2OCc2cc(=O)n3ccccc3n2)c1,IkBa stabilization activation,[1],inconclusive: 2.23% [signal inhibitor]
CCOc1ccccc1NC(=O)c1c(NCc2cccs2)sc2c1CCCCC2,IkBa stabilization activation,[1],inactive
COc1ccc(NC2c3ncccc3C(=O)N2Cc2ccccc2)c(OC)c1 (centres undefined),IkBa stabilization activation,[1],inactive
COc1ccc(-n2ccn(Cc3ccccc3C)c(=O)c2=O)cc1,IkBa stabilization activation,[1],inconclusive: 3.59% [signal inhibitor]
CCOc1ccc(N(C(C)C(=O)NCCSc2ccc(C)cc2)S(C)(=O)=O)cc1 (centres undefined),IkBa stabilization activation,[1],inconclusive: 3.47% [signal inhibitor]
COc1cccc(C(c2sc3nc(-c4ccco4)nn3c2O)N2CCN(c3ccccc3F)CC2)c1 (centres undefined),IkBa stabilization activation,[1],inconclusive: 4.31% [signal inhibitor]
Cc1cc(C)cc(NC(=O)C(=O)NCC(c2cccnc2)N2CCN(c3ccccc3)CC2)c1 (centres undefined),IkBa stabilization activation,[1],inconclusive: -1.29% [signal inhibitor]
COc1cccc(N2CCN(C(=O)c3ccc4nc(N5CCCCC5)sc4c3)CC2)c1,IkBa stabilization activation,[1],inconclusive: 2.38% [signal inhibitor]
CN1CCN(C(c2cccnc2)c2ccc3cccnc3c2O)CC1 (centres undefined),IkBa stabilization activation,[1],inconclusive: 15.6% [signal activator]
O=C1CN(C(=O)Nc2ccccc2Cl)C(c2ccccc2)c2c(sc3c2CCCC3)N1 (centres undefined),IkBa stabilization activation,[1],inconclusive: 1.14% [signal inhibitor]
COc1ccc(-c2cc(C(=O)NCCc3ccc(OC)c(OC)c3)c3ccccc3n2)cc1,IkBa stabilization activation,[1],inconclusive: 6.8% [signal inhibitor]
CCOc1ccccc1N1CC(O)=C(c2nc3ccccc3s2)C1=N,IkBa stabilization activation,[1],inconclusive: 7.13% [signal inhibitor]
COc1ccc(NC(=O)C(C)Sc2cc(-c3ccccc3)nc(C)n2)cc1Cl (centres undefined),IkBa stabilization activation,[1],inconclusive: -1.09% [signal inhibitor]
c1ccccc1,IkBa stabilization activation,[1],inactive
CCCNC(=O)C1CCN(Cc2cc3ccccc3n2Cc2ccccc2)CC1,IkBa stabilization activation,[1],inconclusive: -0.727% [signal inhibitor]
COc1cc(C)ccc1OCCSc1nc2ccc(NC(=O)c3ccc(C)cc3)cc2s1,IkBa stabilization activation,[1],inactive
O=C1c2nc3ccccn3c2C(=O)N1Cc1ccccc1,Potency,[1],"inconclusive: 2510 nM [signal inhibitor, partial curve]"
COc1ccc(-c2ccc(CCC(=O)O)n2CC(=O)Nc2cccc(Cl)c2C)cc1,IkBa stabilization activation,[1],inconclusive: 1.4% [signal inhibitor]
Cc1c(C(=O)N(Cc2ccc(N(C)C)cc2)Cc2ccco2)oc2cc(Br)ccc12,IkBa stabilization activation,[1],inconclusive: -0.0525% [signal inhibitor]
COc1ccc(CNC(=O)CCc2c(C)nc3nc(CNC(=O)OC(C)(C)C)nn3c2C)cc1,IkBa stabilization activation,[1],inconclusive: 4.44% [signal inhibitor]
O=C(CN1C(=O)CC(c2ccco2)Sc2ccccc21)Nc1ccc(Br)cc1 (centres undefined),IkBa stabilization activation,[1],inconclusive: 4.52% [signal inhibitor]
COc1ccccc1-c1noc(-c2ccc(NCc3cccnc3)c([N+](=O)[O-])c2)n1,IkBa stabilization activation,[1],inactive
COc1cccc(CN2C(=O)C3(SCC(=O)N3c3ccc(C(C)C)cc3)c3ccccc32)c1 (centres undefined),IkBa stabilization activation,[1],inconclusive: -3.03% [signal inhibitor]
CCc1cccc(NC(=O)c2oc3ccc4c(c3c2C)C(=O)CC(C)(C)O4)c1,IkBa stabilization activation,[1],inactive
Cc1ccc2cc3c(NC(=O)c4cccnc4)nn(C)c3nc2c1,IkBa stabilization activation,[1],inactive
O=c1cc(-c2ccccc2)nc(N2CCN(Cc3ccc4c(c3)OCO4)CC2)[nH]1,Potency,[1],"inconclusive: 31600 nM [signal inhibitor, partial curve]"
CCOc1ccc(C(=O)Nc2ccc3oc(-c4ccc(Br)cc4)nc3c2)cc1,IkBa stabilization activation,[1],inactive
O=C(c1ccc2c(c1)OCCO2)N(Cc1cccnc1)c1nc2c(F)cc(F)cc2s1,IkBa stabilization activation,[1],inconclusive: -0.944% [signal inhibitor]
COc1cccc(CNS(=O)(=O)c2ccc(-c3cc(C(F)(F)F)on3)s2)c1,IkBa stabilization activation,[1],inconclusive: -3.51% [signal inhibitor]
N#Cc1c(NC(=O)C(F)(F)F)sc2c3c(=O)c4ccccc4c(=O)c=3oc3ccccc3c12,IkBa stabilization activation,[1],"inactive: 10.3% [at 11.4 µM, scaled: untreated 0%, proteasome inhibitor 100%]"
CCOC(=O)c1ccc(N2C(=O)Cc3cc(OCC)c(OCC)cc3C2c2ccccc2)cc1 (centres undefined),IkBa stabilization activation,[1],inconclusive: 10.9% [signal inhibitor]
CCS(=O)(=O)Nc1ccc(-c2nnc(SCC(=O)OC)o2)cc1,Potency,[1],"inconclusive: 1260 nM [signal inhibitor, full curve]"
O=C(OCC(=O)N1CCN(C(=O)c2ccco2)CC1)c1cc(-c2ccc(F)cc2)nc2ccccc12,IkBa stabilization activation,[1],inconclusive: 2.35% [signal inhibitor]
